Measured values: PubChem BioAssay AID1345083 (National Center for Advancing Translational Sciences (NCATS), 2018)
Screen size: about 94,000 compounds; about 6,200 (6.6%) were called active. The shares of active, inactive and inconclusive entries below differ from those in the screen. Calls come from the whole dose curve; as a rule, active = well fitted inhibition curve with a large enough effect; inconclusive = small, poorly fitted or top-dose-only effect; inactive = flat fitted curve, though single readings scatter. A potency beside an inconclusive call is a rough fit, not a confirmed value.

Test: Cytotoxic Profiling in HEK 293 Cell Line of Diverse Libraries Using Quantitative High-Throughput Screening; note: nearly all actives have a fitted effect of over 60% in size
Settings: HEK 293 viability, ATP luminescence (CellTiter-Glo), 48-72 h; series mostly up to 115 µM
Method in brief: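 Read-out: CellTiter-Glo ATP luminescence. Cells: HEK 293, 250 cells/well. Exposure: 48 or 72 hr, 37 degree Celsius.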
Potency is the fitted concentration of half-maximal effect; tags give direction and shape of the fitted curve.

Row | SMILES | Potency
1 | CCC1=C(C(=O)OC)C(c2ccccc2F)N2C(CC(=O)NC3CC3)=CSC2=N1 (centres undefined) | inactive
2 | Cc1ccn2c(C(=O)N[C@H]3CCOC[C@H]3C3CCOCC3)nnc2n1 | inactive
3 | O=C(Cc1ccc(F)cc1)N1CCN(c2ccnc3ccnn23)CC1 | inconclusive: 100 µM [inhibitor, partial curve]
4 | O=C1N(C2CCOCC2)C[C@H]2CN(CCCc3ccccc3)CCN12 | inactive
5 | COc1ccc(-c2onc(C)c2C(=O)N[C@H](C)c2cccc(OC)c2)cc1 | inconclusive: 50.1 µM [inhibitor, partial curve, poor fit]
6 | COc1ccc(/C=C/CN2CCC3(CC2)C(=O)N(Cc2cccnc2)C(=O)N3C)cc1 | inconclusive: 70.8 µM [inhibitor, single point]
7 | CC(C)(CN1CCOCC1)NC(=O)c1csc2nc(-c3ccc(F)cc3)cn12 | inconclusive: 79.4 µM [inhibitor, partial curve, poor fit]
8 | CCOc1ccccc1CN1CCCC(c2nc(-c3cccnc3)no2)CCNC(=O)CC1 (centres undefined) | inconclusive: 89.1 µM [inhibitor, single point]
9 | COc1ccccc1Cn1c(=O)c(C(=O)N2CCN(C(=O)Cc3cccc(Cl)c3)CC2)nc2cccnc21 | inconclusive: 50.1 µM [inhibitor, partial curve, poor fit]
10 | O=[S+]([O-])(NC1CCN(Cc2ccc(-c3ccsc3)cc2)C1)c1cccs1 (centres undefined) | active: 39.8 µM
11 | COc1ccc(-c2nc(N3CCOCC3)cc3c2CN(Cc2ccccc2)C3=O)cn1 | inconclusive: 112 µM [inhibitor, partial curve, poor fit]
12 | Cc1nc(-c2ccccc2OC2CN(S(=O)(=O)Cc3ccccc3F)C2)no1 | inconclusive: 39.8 µM [inhibitor, partial curve, poor fit]
13 | O=C(C1CCN(c2nc3ncccc3o2)CC1)N1CCC(Cc2ccccc2)CC1 | inconclusive: 56.2 µM [inhibitor, partial curve, poor fit]
14 | Cc1ccccc1C(=O)N1CC(CN2C(=O)c3c(c(C)nn3-c3ccccc3)C2C)C1 (centres undefined) | inconclusive: 44.7 µM [inhibitor, partial curve, poor fit]
15 | Cc1ccc(CN2CCc3nc(N(C)Cc4cccnc4)[nH]c(=O)c3CC2)s1 | inconclusive: 22.4 µM [inhibitor, full curve]
16 | CCC1CN(C(=O)c2ccc(C)c(F)c2F)CCC(=O)N1Cc1ccccc1 (centres undefined) | inconclusive: 89.1 µM [inhibitor, single point]
17 | COc1ccc(NC(=O)c2ccc3c(c2)OCCN(CCC(C)C)C3)c(F)c1 | inconclusive: 35.5 µM [inhibitor, partial curve, poor fit]
18 | COc1ccccc1C(=O)N1CCN(C(=O)c2nnn3c2COC(c2ccc(Cl)cc2)C3)CC1 (centres undefined) | inconclusive: 50.1 µM [inhibitor, partial curve, poor fit]
19 | O=C(NCCc1ccccc1)C1CCCN1Cc1ccc(-c2cncnc2)cc1 (centres undefined) | inconclusive: 56.2 µM [inhibitor, partial curve, poor fit]
20 | Cc1nc(CN2C(=O)OC3(CCN(C(=O)c4ccc(Oc5ccccc5)cc4)CC3)C2(C)c2ccccc2)cs1 (centres undefined) | inconclusive: 35.5 µM [inhibitor, full curve]

Row | SMILES | Potency
21 | OC[C@@H]1CN(Cc2ccccn2)C[C@H]1c1nc(-c2cccnc2)no1 | inconclusive: 35.5 µM [inhibitor, full curve]
22 | CCC(C)CNc1ncnc2c1CN(C1CCCNCC1)C(=O)CN2C (centres undefined) | inactive
23 | FC(F)(F)c1cccc(C2=NOC3(CCCN(Cc4cccc5ccccc45)C3)C2)c1 (centres undefined) | inconclusive: 79.4 µM [inhibitor, partial curve, poor fit]
24 | N#Cc1ccc(CN2CCC3(Cc4ccccc4NC3=O)C2)cc1 (centres undefined) | active: 89.1 µM
25 | CC(C)(C)CC(=O)N[C@H]1C[C@H]2C(=O)Nc3ccc(-c4cccs4)cc3C(=O)N2C1 | inactive
26 | CCCC(=O)N1CCC(Oc2cnc3c(ccn3-c3cncnc3)c2)CC1 | inconclusive: 112 µM [inhibitor, partial curve, poor fit]
27 | COc1ccc(CCCn2ccnc2-c2cn(C3CCNCC3)nn2)cc1 | inconclusive: 35.5 µM [inhibitor, full curve]
28 | O=C(Nc1cccc(Cl)c1)C1CN(c2ccccc2)C(=O)N1 (centres undefined) | inconclusive: 112 µM [inhibitor, single point]
29 | CCN1c2cc(C(=O)NCCc3ccccc3)ccc2C(=O)N2CCCCCC21 (centres undefined) | inconclusive: 44.7 µM [inhibitor, partial curve, poor fit]
30 | COc1ccc(C)cc1NC(=O)[C@H]1CCC[C@H]1NC(=O)c1cnc(C)cn1 | inconclusive: 100 µM [inhibitor, single point]
31 | O=C(c1cccc(OC2CN(C3CCSCC3)C2)c1)N1CCCC1 | inactive
32 | CC(C)CCNC[C@H]1O[C@H](Cc2cc(-c3ccc(F)cc3)on2)CC[C@@H]1O | active: 89.1 µM
33 | COc1ccc(N2Cc3c(NCCCc4ccccc4)ncnc3N(C)CC2=O)cc1 | inconclusive: 63.1 µM [inhibitor, partial curve, poor fit]
34 | COc1ccc(CCC(=O)N2CCN(C(=O)c3nnn4c3COC(c3ccccc3)C4)CC2)cc1 (centres undefined) | inconclusive: 89.1 µM [inhibitor, single point]
35 | Cn1cccc1CN1CC2(C1)NC(=O)c1ccccc1O2 | inconclusive: 126 µM [inhibitor, partial curve, poor fit]
36 | Cn1ncc2c(C(=O)Nc3ccccc3Cl)cc(-c3cccc(C(F)(F)F)c3)nc21 | inconclusive: 89.1 µM [inhibitor, single point]
37 | COc1ccccc1C(=O)N1CCCN(c2nnc3cccc(C)n23)CC1 | inactive
38 | COc1ccc(NC(=O)c2ccc3c(c2)OCCN(c2ccccc2)C3)cn1 | inconclusive: 25.1 µM [inhibitor, partial curve, poor fit]
39 | Cc1nn(CC(=O)NCCCN2CCCCC2)c(=O)c2nc(-c3ccccc3)sc12 | inconclusive: 100 µM [inhibitor, single point]
